Consider 17 compounds from PubChem BioAssay (NCATS).

Experiment [1] in a line: qHTS Assay for Lipid Storage Modulators (AID 1519). The conditions noted are these: Drosophila S3 cells, BODIPY lipid droplet/cell ratio, laser cytometry, cells loaded with oleic acid. The essentials: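 Cells seeded at 5,000 per well were treated with compounds over a concentration series and loaded with oleic acid (400 uM, as added). Lipid droplet fluorescence (488 nm excitation, 500-530 nm channel) was read by laser-scanning cytometry and normalized to 20 uM Triacsin C.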

The nature of experiment [2]: qHTS Assay for Modulators of Human Peripheral Myelin Protein 22 (PMP22) Expression/Activity (AID 1967). The conditions noted are these: Cell-based PMP22 reporter, dual-color luciferase ratio. The essentials:
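Luminescence ratio of Pmp22 promoter-driven green luciferase to EF-alpha-driven red luciferase, in engineered mouse MSC80 Schwann cells, served as read-out. Compounds were incubated 24h; untreated cells defined 0% Activity; curves were classified by r2, magnitude and activity.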

The nature of experiment [3]: qHTS Validation Assay to Find Inhibitors of Chronic Active B-Cell Receptor Signaling (AID 485345). The conditions noted are these: ABC-DLBCL cells, chronic BCR signaling reporter. The procedure, abridged:
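Read-out: ratio of filter-corrected green (IkappaBalpha fusion) to red (native) luciferase signal in doxycycline-induced TMD8 cells after 4 h at 37C. Titration spanned 46 uM–3 nM; Data were normalised to basal cells and 10 uM MG-132 wells.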

A short description of experiment [4]: A High-Content qHTS Against Drug Library for the Identification of Small Molecules that Inhibit DYT1 Early Onset Primary Dystonia-Associated Cell Pathology (AID 1645839). To be noted: HEK293 Flp-In EGFP-delE TorsinA, punctate imaging, 48 h; measured here: cell count cytotoxicity. The essentials:
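In this high-content image screen, delE TorsinA mislocalization in inducible Flp-In 293 cells is scored as %pathology, with cell count serving as the counterscreen. Compound exposure lasts 48 h under tetracycline induction in reduced-serum medium.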

A short description of experiment [5]: qHTS drug screen for cell cycle checkpoint inhibitors in PARPi-resistant BRCA-mutant ovarian cancer cell lines. (AID 1963452). The conditions noted are these: PEO1/OlaR viability, CellTiter-Glo luminescence, 96 h. The essentials:
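PEO1, PEO4 and PEO1/OlaR ovarian cancer cells, 600 per well, exposed 96 h at 37C to a dilution series. Viability read by CellTiter-Glo luminescence, normalized to DMSO and empty wells; activity summarized as Z-AUC.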

Experiment [6] in a line: qHTS for identification of novel therapeutic agents for treatment of microphthalmiaassociated transcription factor (MiT) renal cell carcinoma (RCC) (AID 1963991). To be noted: CellTiter-Glo, 48 h; for z-score: stronger effect = lower value. The procedure, abridged: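 Viability of three TFE3-fusion renal carcinoma lines measured by CellTiter-Glo after 48 h treatment with each of 1912 compounds at 11 concentrations. Responses scaled between DMSO (100%) and empty wells (0%) before curve fitting.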

Setting [7] is: measured here: cell count channel max response.
The mark [8] stands for this setting: measured here: cell number channel AC50.
Setting [9] is: measured here: lipid (BODIPY) channel AC50.
[10] abbreviates: measured here: lipid channel max response.

SMILES strings stand for the structures. Values joined by “and” are separate entries in the source; they are usually repeats but may differ in a detail not shown here. Identical values can stand only once. Some of the results follow. These are further read-outs of the screen, such as a control signal, another cell line or another target. No call is given for them. For some of these results: The list favours compounds with an active or inconclusive main result. Potencies come from curve fits of mixed quality, noted in brackets.
Tags describe the fitted curve by direction and shape.

Turning to `CC(=O)NCCNc1ccnc(-c2ccccc2C)n1`, the values for the max response in experiment [1] (setting [7]) and in experiment [1] (setting [10]) were 28.7% and 33.3%, respectively. Moreover, the AC50 was 1.78 µM [rising, full curve, poor fit] in experiment [1] (setting [8]) and 1.58 µM [rising, full curve] in experiment [1] (setting [9]).

With `CN(C)c1ncnc2ccc(-c3ccccc3C(F)(F)F)cc12`, the max response was 17.1% in experiment [1] (setting [7]) and 14.1% in experiment [1] (setting [10]). Moreover, the AC50 in experiment [1] (setting [8]) was 0.0708 µM [rising, full curve]; in experiment [1] (setting [9]), 0.0316 µM [rising, full curve, poor fit].

In the case of `CN(C)c1ncc2nc(-c3ccc(F)cc3)c(=O)n(CCc3ccccc3)c2n1`, the max response came out at 40.9% in experiment [1] (setting [7]) and 49.4% in experiment [1] (setting [10]). Moreover, the AC50 in experiment [1] (setting [8]) is 0.794 µM [rising, full curve]; in experiment [1] (setting [9]) it was 0.562 µM [rising, full curve].

Regarding `COc1ncc2nc(-c3cn(C)c4ccccc34)c(=O)n(CCc3ccccc3)c2n1`, the results for the max response in experiment [1] (setting [7]) and in experiment [1] (setting [10]) were 22% and 29.2%, respectively. Further, the AC50 in experiment [1] (setting [8]) is 1.78 µM [rising, partial curve, poor fit]; in experiment [1] (setting [9]) it was 0.708 µM [rising, full curve, poor fit].

With `COc1cccc(-c2cc(NCc3ccccc3)ncn2)c1`, the results for the max response in experiment [1] (setting [7]) and in experiment [1] (setting [10]) were 21.8% and 18.3%, respectively. Besides, the AC50 in experiment [1] (setting [8]) was 3.98 µM [rising, partial curve]; in experiment [1] (setting [9]) it was 3.55 µM [rising, partial curve, poor fit].

For `CNCCCC12CCC(c3ccccc31)c1ccccc12`, the max response in experiment [1] (setting [7]) stood at 44.1%; in experiment [1] (setting [10]), 54.4%. For the same compound, the AC50 is 39.8 µM [rising, single point] in experiment [1] (setting [8]); 39.8 µM [rising, single point] in experiment [1] (setting [9]); 21.3 µM [falling, full curve] in experiment [2] (measured here: green reporter channel AC50, mouse Pmp22 promoter in mouse Schwann cells); 23.9 µM [falling, full curve] in experiment [2] (measured here: red reporter channel AC50, EF-alpha promoter control reporter in MSC80 mouse Schwann cells); 23.1 µM [falling, partial curve] in experiment [3] (measured here: CBG/CBR ratio read-out); 9.2 µM [falling, partial curve] in experiment [3] (measured here: CBR control luciferase (viability counter)). The AC50 in experiment [4] was 10 µM [falling, partial curve, poor fit]; in experiment [5] (measured here: PEO1 parental viability), 17.4 µM [falling, single point]; in experiment [5] (measured here: PEO4 viability), 12.3 µM [falling, partial curve]; in experiment [6] (TFE3-RCC viability, measured here: UOK124 cell viability) it was 23.5 µM [falling, partial curve]; in experiment [6] (TFE3-RCC viability, measured here: UOK145 cell viability), 26.4 µM [falling, partial curve]. Further, the z-score was -0.112 in experiment [6] (TFE3-RCC UOK109 viability, measured here: UOK109 Z-AUC); -0.164 in experiment [6] (TFE3-RCC viability, measured here: UOK124 Z-AUC); -0.119 in experiment [6] (TFE3-RCC viability, measured here: UOK145 Z-AUC).

On to `Cc1c(C(=O)NN2CCOCC2)nn(-c2ccc(Cl)cc2Cl)c1-c1ccc(I)cc1`, for which the max response was found to be 56.5% in experiment [1] (setting [7]) and 69.7% in experiment [1] (setting [10]). Besides, the AC50 is 5.62 µM [rising, full curve] in experiment [1] (setting [8]) and 5.01 µM [rising, full curve] in experiment [1] (setting [9]).

In the case of `COc1ccccc1-c1nc(N2CCN(C)CC2)c2ccccc2n1`, the max response in experiment [1] (setting [7]) came to 40.5%; in experiment [1] (setting [10]), 45.6%. Further, the AC50 in experiment [1] (setting [8]) is 17.8 µM [rising, partial curve, poor fit]; in experiment [1] (setting [9]), 17.8 µM [rising, partial curve, poor fit].

As to `O=c1c(-c2cccc(Cl)c2)nc2cncnc2n1Cc1ccccc1`, the max response came to 12.4% in experiment [1] (setting [7]) and 15.5% in experiment [1] (setting [10]). Further, the AC50 is 0.355 µM [rising, full curve] in experiment [1] (setting [8]) and 0.398 µM [rising, full curve] in experiment [1] (setting [9]).

Regarding `CNCCCCOc1ccccc1Cc1ccccc1`, the max response was 42.5% in experiment [1] (setting [7]) and 43.6% in experiment [1] (setting [10]). In addition, the AC50 was 0.631 µM [rising, full curve, poor fit] in experiment [1] (setting [8]); 31.6 µM [rising, single point] in experiment [1] (setting [9]); 10 µM [falling, partial curve, poor fit] in experiment [4].

On to `O=C(c1cnccn1)N1CCC[C@@]2(CCN(Cc3ccncc3)C2)C1`, for which the max response worked out at 16.7% in experiment [1] (setting [7]) and 29.8% in experiment [1] (setting [10]). Besides, the AC50 in experiment [1] (setting [8]) is 2.82 µM [rising, partial curve]; in experiment [1] (setting [9]) it was 1.58 µM [rising, full curve, poor fit].

Regarding `c1cc2c(cc1C1CCCCC1)c1c3n2CCN[C@H]3CCC1`, the max response was determined as 34.4% in experiment [1] (setting [7]) and 7.92% in experiment [1] (setting [10]). The AC50 in experiment [1] (setting [8]) is 11.2 µM [rising, full curve, poor fit]; in experiment [1] (setting [9]), 11.2 µM [rising, single point].

For `CC(=O)NCCNc1ncnc2ccc(-c3ccccc3Cl)cc12`, the max response came out at 11.5% in experiment [1] (setting [7]) and 12.4% in experiment [1] (setting [10]). For the same compound, the AC50 is 6.31 µM [rising, single point] in experiment [1] (setting [8]) and 5.62 µM [rising, partial curve, poor fit] in experiment [1] (setting [9]).

In the case of `Cc1ccc(O)c(N=Nc2ccccc2)n1`, the max response in experiment [1] (setting [7]) was 75.3% and 64%; in experiment [1] (setting [10]), 100% and 66.3%. In addition, the AC50 in experiment [1] (setting [8]) was 35.5 µM [rising, partial curve, poor fit]; in experiment [1] (setting [9]), 35.5 µM [rising, partial curve, poor fit].

For the compound `CCNc1ncc2nc(CCc3ccccc3)c(=O)n(C[C@H]3CCCO3)c2n1`, the max response in experiment [1] (setting [7]) was 32.9%; in experiment [1] (setting [10]) it was 35.6%. The AC50 in experiment [1] (setting [8]) was 1.12 µM [rising, full curve]; in experiment [1] (setting [9]), 0.708 µM [rising, full curve].

Turning to `Cl/C(=C\n1cncn1)c1ccc(Cl)cc1Cl`, the max response worked out at 107% in experiment [1] (setting [7]) and 132% in experiment [1] (setting [10]). Besides, the AC50 in experiment [1] (setting [8]) was 14.1 µM [rising, partial curve]; in experiment [1] (setting [9]) it was 15.8 µM [rising, partial curve]; in experiment [4], 12.6 µM [rising, single point].

On to `O=C(O)COc1cccc(-c2ocnc2-c2nc(-c3ccccc3)c(-c3ccccc3)o2)c1`, for which the max response in experiment [1] (setting [7]) came out at 97.6%; in experiment [1] (setting [10]), 125%. In addition, the AC50 in experiment [1] (setting [8]) was 15.8 µM [rising, partial curve]; in experiment [1] (setting [9]), 17.8 µM [rising, partial curve].
